The text below walks through data of the RNAGym collection of RNA variant scans (doi:10.1073/pnas.2313332121).

Variants at the floor of the assay are shown more often than the library holds them.

First the molecules themselves.
B1: TPR 5TU (parent)
chain: GGAUCUUCUCGAUCUAACAAAAAAGACAAAUCUGCCACAAAGCUUGAGAGCAUCUUCGGAUGCAGAGGCGGCAGCCUUCGGUGGCGCGAUAGCGCCAACGUUCUCAACUAUGACACGCAAAACGCGUGCUCCGUUGAAUGGAGUUUAUCAUG

In the data set the parent is B1. The experiment in a line: polymerase ribozyme fitness, log enrichment relative to wild type (log ratio); higher = more active; in vitro selection for triplet polymerase activity. The method, boiled down:
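Mutant libraries were PCR-built and transcribed for each subunit of a heterodimeric triplet polymerase ribozyme and selected for one round in triplicate at −7 °C, frozen, before gel excision of extended constructs and streptavidin-bead capture. Input and output libraries were Illumina-sequenced, keeping genotypes with ≥10 input reads and ≥1 read per output. Fitness is a logarithmic ratio of genotype to wild-type enrichment, in base 2, using inverse-variance-weighted replicate averages.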
As for A23C C36G G42A C96U C131A, the “polymerase ribozyme fitness (log ratio)” value was no more than -4.2.

As to A22U G25C C57A C76A C93A A137U G152U, the “polymerase ribozyme fitness (log ratio)” value was no more than -4.2.

As for A22C G25A U55G G92U G136U, the “polymerase ribozyme fitness (log ratio)” value is no more than -4.2.

Turning to A21U C38A U102A A120U A147C, the “polymerase ribozyme fitness (log ratio)” value was -2.82.

A23C G62C C85G U134A U148C: the “polymerase ribozyme fitness (log ratio)” value is no more than -4.2.

Regarding A22C G46A A47C C79A G88A C118G A142G, the “polymerase ribozyme fitness (log ratio)” value was no more than -4.2.

Take A23C U53G U78C G92A G100U A107U G133C G140U: the “polymerase ribozyme fitness (log ratio)” value was no more than -4.2.

On to A22C C32U C96A U104C C108G, for which the “polymerase ribozyme fitness (log ratio)” value was no more than -4.2.

As to A22G G68C A73U A89U G94A, the “polymerase ribozyme fitness (log ratio)” value was no more than -4.2.

For the variant A21U C96A, the “polymerase ribozyme fitness (log ratio)” value was -0.443.

For the variant A23C A29U G68C U82G G133U U134A A138U, the “polymerase ribozyme fitness (log ratio)” value is no more than -4.2.

For A23C A24G A26U G50C C54U A113U, the “polymerase ribozyme fitness (log ratio)” value was no more than -4.2.

Regarding A23C A24C U61G A110U, the “polymerase ribozyme fitness (log ratio)” value was no more than -4.2.

For A23C C43A G83C G86U C96U, the “polymerase ribozyme fitness (log ratio)” value is no more than -4.2.

As to A22C A52C C69G C95U A98U C118G C125A C132G G133A U148G, the “polymerase ribozyme fitness (log ratio)” value was no more than -4.2.

Consider A22G G50A C76U C87U A110G G143U, for which the “polymerase ribozyme fitness (log ratio)” value was no more than -4.2.

For the variant A22C C32G C79U C87A C96A C116A U134G, the “polymerase ribozyme fitness (log ratio)” value is no more than -4.2.

For the variant A22C A30G A37G C38A C69A C95U A98U A120U, the “polymerase ribozyme fitness (log ratio)” value is no more than -4.2.

With A21U G68A C79A G92C, the “polymerase ribozyme fitness (log ratio)” value is no more than -4.2.

In the case of A21U U55A C85U U148A, the “polymerase ribozyme fitness (log ratio)” value is -4.07.

With A22C A28U A37G U45A C69U A73U G80U C95A A150C, the “polymerase ribozyme fitness (log ratio)” value was no more than -4.2.

A23C C93A C108U G143U: the “polymerase ribozyme fitness (log ratio)” value was no more than -4.2.

On to A21G U55C G59C C75A U78C G84C C114G U135G, for which the “polymerase ribozyme fitness (log ratio)” value was no more than -4.2.

With A22U C38U C57U G94C G126U, the “polymerase ribozyme fitness (log ratio)” value is -0.0445.

Regarding A22C A37G U44A U56A C69U C87U, the “polymerase ribozyme fitness (log ratio)” value is no more than -4.2.

Regarding A22C C36A G58C C87A G143U, the “polymerase ribozyme fitness (log ratio)” value is no more than -4.2.

A22U C103G A110C: the “polymerase ribozyme fitness (log ratio)” value was no more than -4.2.

A21U A28G U44A G88C: the “polymerase ribozyme fitness (log ratio)” value is no more than -4.2.

For the variant A21G G25U C85U C99U U134A, the “polymerase ribozyme fitness (log ratio)” value is no more than -4.2.

A22U C35U U45A G48C A89G C95G U139C G140A G141U A142C: the “polymerase ribozyme fitness (log ratio)” value was no more than -4.2.

A21U C32A C51U A73G U134G: the “polymerase ribozyme fitness (log ratio)” value was no more than -4.2.

With A21U C36G U56C C75U C87G, the “polymerase ribozyme fitness (log ratio)” value is no more than -4.2.

With A23C A40G G50C G59C U102G U109G G117A, the “polymerase ribozyme fitness (log ratio)” value was no more than -4.2.

Consider A22C U77G C132U, for which the “polymerase ribozyme fitness (log ratio)” value is no more than -4.2.

Turning to A22C U33G G50C U78A C87A G126A U135A U144G, the “polymerase ribozyme fitness (log ratio)” value was -3.83.

Turning to A21U A24G U55G G71A G84A C93U U101G, the “polymerase ribozyme fitness (log ratio)” value was no more than -4.2.

For A21U C27U C87G G88C G152A, the “polymerase ribozyme fitness (log ratio)” value was no more than -4.2.

For A21U G59U C105U C129A, the “polymerase ribozyme fitness (log ratio)” value was -2.46.

Consider A22C A29U C51G U78G C87G C96A C114U G124A U139A, for which the “polymerase ribozyme fitness (log ratio)” value is no more than -4.2.

Take A21U C43A U78G G84U C93U C103G A115G: the “polymerase ribozyme fitness (log ratio)” value is no more than -4.2.

Regarding A22U C75A G81C C87U A150U, the “polymerase ribozyme fitness (log ratio)” value is no more than -4.2.

On to A22U A23C A24C G48C G67U G86U C95G C96U C114G C118G, for which the “polymerase ribozyme fitness (log ratio)” value is no more than -4.2.

Consider A22C U44A C75U G94A C131U, for which the “polymerase ribozyme fitness (log ratio)” value is no more than -4.2.

Take A21G C27A G46A A73G C87A: the “polymerase ribozyme fitness (log ratio)” value is no more than -4.2.

Take A23C U61A U82C A142C: the “polymerase ribozyme fitness (log ratio)” value is no more than -4.2.

Consider A22C G25A U45A C51U U61C C96G U144C, for which the “polymerase ribozyme fitness (log ratio)” value was no more than -4.2.

Take A22U G59A A66U G86A A120G A138G: the “polymerase ribozyme fitness (log ratio)” value was no more than -4.2.

As for A22U G81A A106C G128A U139C, the “polymerase ribozyme fitness (log ratio)” value is -3.92.

For A22U C99G C118G A121G U151G, the “polymerase ribozyme fitness (log ratio)” value is no more than -4.2.

In the case of A21U A22U C27G C38U G59C G81A G88C C118A A147C U151G, the “polymerase ribozyme fitness (log ratio)” value was no more than -4.2.

For the variant A21U G65U, the “polymerase ribozyme fitness (log ratio)” value was no more than -4.2.

In the case of A21G C76G A97U, the “polymerase ribozyme fitness (log ratio)” value is no more than -4.2.

On to A22C A47C C51G A64G C72A C95U A107G A113U U135A, for which the “polymerase ribozyme fitness (log ratio)” value was no more than -4.2.

On to A23G A29U G46C U55G G81C, for which the “polymerase ribozyme fitness (log ratio)” value is no more than -4.2.

Regarding A23C U44A U45A U61A G84A A106C C129U U134G, the “polymerase ribozyme fitness (log ratio)” value is no more than -4.2.

Regarding A22C A52U G58C U61G G65U G80U C96U, the “polymerase ribozyme fitness (log ratio)” value was no more than -4.2.

For the variant A21U A60G U78A U148C, the “polymerase ribozyme fitness (log ratio)” value was no more than -4.2.

In the case of A23C C95U, the “polymerase ribozyme fitness (log ratio)” value was -4.12.

Consider A21U A23C G58A C63A G84U U90A C118A, for which the “polymerase ribozyme fitness (log ratio)” value was no more than -4.2.

Turning to A21U U33A A64U C85G A91C C105U C108G G126U, the “polymerase ribozyme fitness (log ratio)” value is no more than -4.2.

For the variant A22C C54U G92A C116G U127C A147C C149U, the “polymerase ribozyme fitness (log ratio)” value was no more than -4.2.

Regarding A21U G58A G59C G62A G88C C118G C123G U139A, the “polymerase ribozyme fitness (log ratio)” value was no more than -4.2.

As for A22C C38U A52U G92A U104C C116G G124A, the “polymerase ribozyme fitness (log ratio)” value was no more than -4.2.

Consider A22G A52G G94A C95G C96G G140U U146G, for which the “polymerase ribozyme fitness (log ratio)” value is no more than -4.2.

As to A22U G71U C125A, the “polymerase ribozyme fitness (log ratio)” value was no more than -4.2.

With A23C A41U G68U C93U A106G, the “polymerase ribozyme fitness (log ratio)” value was no more than -4.2.

In the case of A21G G25U G50U C54U A73G C93A C108G C129G U135G, the “polymerase ribozyme fitness (log ratio)” value is no more than -4.2.

On to A21U C36A, for which the “polymerase ribozyme fitness (log ratio)” value was -3.4.

Take A22G A40C U139G: the “polymerase ribozyme fitness (log ratio)” value stood at 0.649.

Consider A21U C69U C96A C129A U135A G143U, for which the “polymerase ribozyme fitness (log ratio)” value was -0.753.

For the variant A21U A23G, the “polymerase ribozyme fitness (log ratio)” value was -2.94.

For A21U C35U U77A C85U G92U C93G C118G A150U, the “polymerase ribozyme fitness (log ratio)” value was no more than -4.2.

Consider A22U A24C A39C, for which the “polymerase ribozyme fitness (log ratio)” value was no more than -4.2.

For the variant A21G U31A C51G G71U A89C A106G A110U A138G, the “polymerase ribozyme fitness (log ratio)” value is no more than -4.2.

For the variant A22U U33C A40U U61A A89G U134A A137C, the “polymerase ribozyme fitness (log ratio)” value was no more than -4.2.

For A23C A28C A49C C69G G80U A97U A98C C103G A106G C132A U151A, the “polymerase ribozyme fitness (log ratio)” value is no more than -4.2.

A21U A28C U53A G88C: the “polymerase ribozyme fitness (log ratio)” value is no more than -4.2.

A21G G25C C35U U101G C108G: the “polymerase ribozyme fitness (log ratio)” value is no more than -4.2.

Consider A21U C57A A142U, for which the “polymerase ribozyme fitness (log ratio)” value was -0.38.

In the case of A21G U33G U102G G128A G133U, the “polymerase ribozyme fitness (log ratio)” value was no more than -4.2.

For the variant A21U G50U C85U G86U G88U C129G G133C A142G, the “polymerase ribozyme fitness (log ratio)” value is no more than -4.2.

On to A21U C57A C87G, for which the “polymerase ribozyme fitness (log ratio)” value was no more than -4.2.

A22C A47C C79U U82A: the “polymerase ribozyme fitness (log ratio)” value was no more than -4.2.

As to A22U G46A U55A C75A C85A U90A C103G C114G G128A, the “polymerase ribozyme fitness (log ratio)” value was no more than -4.2.
